# Assay results: the supplement of paper PMC10126150
# Sequences with one replicate were seen in a single cluster, so their values are uncertain.
# System: ATP
# Test: switch fluorescence ratio, 500 uM ATP over buffer (Cy3 cluster intensity, sum of 5 cycles each) (fold (ratio)); higher = stronger signal-on switching upon ATP binding; sequences stand for … in TCGTCGGCAGCGTCAGATGTGTATAAGAGACAGTTTTTTTTTTTTTTTTTTTTTTTTT…TC
# Settings: aptamer strand: ATP DNA aptamer (quencher-CACCTGGGGGAGTATTGCGGAGGAAGG + anchor), 100 nM annealed; ATP concentration: 500 uM; one replicate
# How it was run: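 Switching-strand clusters labelled with Cy3 on a modified Illumina MiSeq flow-cell were annealed to 100 nM quencher-labelled ATP aptamer, imaged in selection buffer, and re-imaged after 15 min with 500 uM ATP at 22 °C. This was done over five cycles with NaOH stripping and re-annealing in between. The fluorescence ratio is summed target-cycle over summed buffer-cycle Cy3 intensity per cluster, averaged per switch-domain sequence, excluding clusters outside 100-1000 RFU.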
# 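Further: ATP exposure 15 min at 22 °C before imaging.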
row,Sequence,switch fluorescence ratio
1,ACATAACTAG,1.06
2,TCGCCGTAAT,1.12
3,CCATTTAGGG,1.02
4,ACTAGTTGAA,1.01
5,AATAGTAAGG,0.996
6,ACTTGGGTTC,0.979
7,TATAGATAGC,0.979
8,TTGGTAGGAA,1.11
9,CTCGGAAAGA,0.987
10,GAAGGCGGCC,1.04
11,CGAATGGAGA,1.01
12,TCCACCGTGA,1.01
13,CAAGTCAATT,0.979
14,TCCAGCTCGT,1.02
15,GCATTTGCGT,1
16,CACCGTCGCT,1.09
17,TCCCTATGTG,1.32
18,CACTGGGGTA,1.04
19,CTAAATCTAG,0.982
20,AGGATGACAT,1.08
21,GGGGCGTACA,1.69
22,GGGCGCTCCA,0.978
23,AAGAAGTACT,1.46

row,Sequence,switch fluorescence ratio
1,AATGTAGCTT,0.986
2,CCGAAGATGG,1.37
3,CCTAGGCATT,3.75
4,GGTCTTTGAC,0.939
5,CACTTCGGCC,1.07
6,GCTAACTGAA,1.01
7,CGTCAGTCCC,1.03
8,TAAGCAGGG,1.03
9,GACCACGGAG,1.03
10,AGGAGCTAAA,0.973
11,GGAACAGCAA,1.83
12,GTGAGGTATT,0.984
13,GCTCCATACA,1.09
14,CTTGTCGAAG,1.09
15,ACATCGTAAT,1.09
16,GCGACCTATC,1.13
17,TCAAACTAAC,1.05
18,ATGCAACCGA,1.12
19,CCTTAGGGGA,1.57
20,ACGGAAGGGG,1.08
21,GCTCCAGTAG,1.23
22,TGAGGACTTG,0.964
23,TCCGTGGTCT,1.11

row,Sequence,switch fluorescence ratio
1,GCGATCTGAA,1
2,ATAACAGAAA,1.06
3,CTTAGTCCTG,0.938
4,TCCGGGCCGT,1.19
5,CATGTTTCCC,0.948
6,ATTAAAAATA,0.999
7,AGAACTCCTC,1.05
8,AGCTGGTGC,1.05
9,CTCAAGGGAC,2.16
10,GGGGGCTATC,1.06
11,AAGGCCTGCG,1.02
12,TGGACTGCAT,1.05
13,GGCACTGTGG,1.03
14,TGGCGGCGGG,1
15,CTAGTTTACT,1.04
16,TTACAATCGT,0.949
17,TTGGGCTGTA,1.01
18,CGGCTAGCGG,1.01
19,TGAGCGCTCG,1
20,CAGCATTCAC,4.6
21,GTCAACCCCG,1.06
22,TACCAATAAT,1.03
23,AGGTAGCAGG,1.15

row,Sequence,switch fluorescence ratio
1,AGGTAGAACG,0.988
2,GGAAAA,0.972
3,TGTGGAAAAC,1.05
4,AGTAATTATA,1.01
5,TGCGTTGAAC,1
6,TGTGGCCTGT,0.997
7,CTGGTGTG,0.97
8,CGGCACTGTT,0.963
9,AAGGAGTCCA,0.984
10,TTCGAGACAG,1.01
11,ACAGCACCTA,1.28
12,AGACTGTACA,1.37
13,GTGCGTGTTC,0.977
14,AGGAATAAC,1.08
15,TGTTTTTGCA,1.05
16,ACAAGGAGC,0.957
17,GGAGCTCGT,0.992
18,CAGCGAGCT,1.04
19,CCACCGTTTG,1.28
20,CTAAACAACA,1.05
21,CCGGGAGGGT,1.04
22,GATAGTACG,1.04
23,GTGCCCTAGC,0.977

row,Sequence,switch fluorescence ratio
1,AGCCCCATTA,1.03
2,TGAAGTAGAT,0.961
3,TTCACCGTGC,1.34
4,ATTATTGACA,0.975
5,AACGTCATTC,1.05
6,TGGATCGACT,1.02
7,AGCGGTCACA,1.03
8,CGAGGTTGAG,0.988
9,TCACACCTGG,1.06
10,TAATTCACAC,1.04
11,AATGTAGTCC,1
12,TCTCGAGTTG,1.01
13,TGGTTCTGAT,0.927
14,TGACAGTTAC,1.3
15,TGTGGGTAAC,1.07
16,TGGTCCCGAT,1.28
17,ACAGATGCTC,1.05
18,TAGTACGTTT,1.13
19,CGTACTAACG,1.11
20,TTCCTCAATT,1.19
21,TAATATCACG,0.989
22,CATACCTAAA,1.05
23,GTCGGAGGAG,0.937

row,Sequence,switch fluorescence ratio
1,GGCACAGTGC,0.992
2,CACGAGTTTT,0.945
3,CATATCCGGG,0.983
4,GCAAGTTCTT,0.985
5,TTTTGCCGC,0.978
6,GTGCTAAATG,0.957
7,GGGGGCCCAT,1.04
8,AGTCAATTTG,1.05
9,GCGGCCATTT,1.02
10,TCAGTGTATA,1.1
11,GGATGAGTGG,0.993
12,TATAGAAATT,1.06
13,CTCGTTGGGA,0.947
14,GTGGATTAAG,1.01
15,AAACTTTCGG,1.04
16,AGGCAGTAGC,0.98
17,TACTGCCCCC,1.23
18,GACAAACCGT,1.15
19,TTTACATACT,1.5
20,GCTGAGCTCG,0.99
21,CAGTGTCT,1.03
22,CTGTCTAGCT,1.03
23,CAAAATGGGC,0.994

row,Sequence,switch fluorescence ratio
1,GCGAGAGGCC,1.1
2,ACGCAATGAA,4.74
3,CATCCATTTG,1.04
4,ACCAGACAGT,1.02
5,TGATACGATT,1.04
6,ACTTGCAGAG,0.997
7,TTTAGTTTTA,0.978
8,AAGATCAGAA,1.01
9,CTCGTCTCCG,0.989
10,GGGCATTACA,1.05
11,GGTTGATAGG,1
12,GAAATCCCCT,1.04
13,ATCAGAAATT,0.976
14,TAATTACTTG,1
15,TCTAGCAGTC,1.06
16,GCGCTCTTTT,0.995
17,TAGAACGGGC,1.01
18,CAAACTTTAG,0.97
19,TGACTGGAAA,0.99
